Measurements from PubChem BioAssay AID602393 (Broad Institute, 2012).
“And” between values parts separate entries of the source, which are not always exact repeats. Equal values may be shown once. The whole screen tested about 350,000 compounds, of which about 7,000 (2%) were called active. The inconclusive results got no clear call from the source; some entries with a clear call stand among them for comparison. No stated cut-off is given here; in the data, active means activation above about 40%; inconclusive means no clear call, values can overlap the other calls; inactive means below that.

Assay: raisers of Bmi1 knock-in reporter signal – mouse ES cells, Bmi1 luciferase knock-in, single point, esBAF inhibitor project, primary screen (AID 602393);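 further: 0% = median of the plate's neutral control wells and 100% = double that signal; a rise in the Bmi1 reporter signal indicates esBAF inhibition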
Conditions: 24 h, at 12.5 µM, stronger effect = higher value, 100% = twice the neutral-well signal
With `O=C(Nc1ccccc1)C1=C(N2CCOCC2)/C(=C/c2cccnc2)CC1` the reporter increase was active: 41.8%. With `CSc1nsc(SCC(=O)Nc2ccc(F)cc2F)n1` the reporter increase was inconclusive: 42.8%. For `Cc1nn(-c2cccc([N+](=O)[O-])c2)c(N)c1-c1ccccc1`, the reporter increase was active: 65.9%. With `CC1(C(=O)Nc2nc3ccccc3s2)CC1(Br)Br` (configuration not stated) the reporter increase was inconclusive: 46.4%. With `CC(NC(=O)c1cc(COc2c(F)cccc2F)on1)c1cnn(-c2ccccc2)c1` (configuration not stated) the reporter increase was inconclusive: 42.2%. For `O=C1CCCCCN1Cc1nnc(SCc2nc3ccccc3s2)n1-c1ccccn1`, the reporter increase was inconclusive: 58.3%. For `COc1cccc(CN2CC(C(=O)N(C)Cc3ccc(C)cc3)CCC2=O)c1` (configuration not stated), the reporter increase was inactive: 12.6%. For `O=C(CCc1nnc(Cc2cccc(C(F)(F)F)c2)o1)NCCc1ccccc1F`, the reporter increase was inconclusive: 42.1%. For `C[C@@H]1CN([C@@H](C)CO)C(=O)Cc2cc(NS(=O)(=O)c3ccccc3)ccc2O[C@H]1CN(C)CC1CC1`, the reporter increase was inactive: -0.127%. In the case of `O=C(N/N=C/c1c(F)cccc1Cl)c1cc(C2CC2)[nH]n1`, the reporter increase is reported as inconclusive: 41.5%. With `COc1ccccc1N1CCN(/N=C/c2ccc(O)cc2O)CC1` the reporter increase was active: 60.9%. With `O=C1C2C(c3cccc(/C=C/c4ccccc4)c3)CC=CC2C(c2ccc(C(F)(F)F)cc2)N1Cc1ccccc1` (configuration not stated) the reporter increase was inactive: 20.7%. With `N#Cc1cnc2sc3ccccc3n2c1=N` the reporter increase was inconclusive: 44.2%. For `COC(=O)/C(=C1\Oc2ccc(C(C)(C)C)cc2S1)C(F)(F)F`, the reporter increase was active: 53.4%. For `CCc1nnc(NC(=O)c2ccc(Cl)nc2)s1`, the reporter increase was inconclusive: 43.8%. With `CN1CCN(C(=O)c2ccc(-c3ccc(Br)cc3)o2)CC1` the reporter increase was inconclusive: 46.7%. With `N/C(=N\OC(=O)c1cccc(F)c1)c1cccc([N+](=O)[O-])c1` the reporter increase was active: 61.1%. With `CC(C)NC(=O)N1[C@H](CO)[C@H]2c3ccccc3N(C(=O)Nc3ccc(Cl)cc3)C[C@H]21` the reporter increase was inactive: 10.9%. With `Cc1ccccc1Nc1nc(N)nc(COC(=O)c2cccn2C)n1` the reporter increase was active: 48.2%. In the case of `Cc1ccc(NC(=O)C/C(N)=N/OC(=O)Nc2cccc(C)c2)cc1`, the reporter increase is reported as inactive: 11.3%. For `CC(SC1=NCCS1)C(=O)Nc1nnc(-c2ccc(F)cc2)s1` (configuration not stated), the reporter increase was inconclusive: 40.9%. In the case of `O=C([C@@H]1[C@@H](CO)[C@@H]2Cn3c(cccc3=O)[C@H]1N2Cc1cccc(Cl)c1)N1CCOCC1`, the reporter increase is reported as inactive: -3.18%. For `COc1ccc(-n2c(C)cc(/C=C3\SC(=O)NC3=O)c2C)cc1`, the reporter increase was inconclusive: 41.6%. For `CCc1ccccc1NC(=O)c1ccc(-c2csc(C)n2)cc1`, the reporter increase was inconclusive: 43%. In the case of `CC(=O)c1ccc(Nc2ccc(-c3ccccc3F)nn2)cc1`, the reporter increase is reported as inconclusive: 42.5%. With `Cc1cc(NC(=O)c2ccc(OCC3CCCO3)cc2)ccc1Br` (configuration not stated) the reporter increase was active: 70.6%. For `O=C(Cc1ccccn1)NCC[C@@H]1CC[C@H](NC(=O)Nc2ccc(Cl)cc2)[C@H](CO)O1`, the reporter increase was inactive: -4.93%. In the case of `C/C=C/c1ccc2c(c1)O[C@H](CN(C)C(=O)c1cccc(F)c1)[C@@H](C)CN([C@H](C)CO)S2(=O)=O`, the reporter increase is reported as inactive: -5.58%. With `O=C(N/N=C/C(Br)=C/c1ccccc1)c1ccc([N+](=O)[O-])cc1` the reporter increase was inactive: 0.35%. With `O=C(CSc1nc(-c2ccco2)cc(C(F)(F)F)n1)N1CCSCC1` the reporter increase was inactive: 2.61%. In the case of `Nc1nn2cc(-c3ccc(Br)cc3)nc2c2ccccc12`, the reporter increase is reported as inconclusive: 40.5%. In the case of `COC(=O)c1ccc(NC(=O)CSc2ccccc2)cc1`, the reporter increase is reported as inconclusive: 49.4%. For `COc1cccc(/C=N/Nc2c(Cl)cncc2Cl)c1O`, the reporter increase was inconclusive: 52.2%. For `CSc1ccc(CN(C)C(=O)c2cc(=O)c3ccccc3o2)cc1`, the reporter increase was inactive: 9.17%. With `COc1cccc(S(=O)(=O)N(C)C[C@@H]2OCc3cnnn3CCCC(=O)N([C@H](C)CO)C[C@H]2C)c1` the reporter increase was inactive: -3.08% and inactive: -2.92%. For `Nc1ccn([C@@H]2O[C@H](CO)[C@@H](O)C2O)c(=O)n1` (some centres not stated), the reporter increase was inactive: -42%. For `Cc1c2ccccc2nc2c(F)c(N(C)C)c(F)c(F)c12`, the reporter increase was inconclusive: 44.5%. With `O=C(C1=C(O)C(=O)N(CCN2CCOCC2)C1c1cccs1)c1cc2ccccc2o1` (configuration not stated) the reporter increase was inconclusive: 45.2%. In the case of `COc1ccc(-c2cc(C(=O)N3CCN(c4ncccn4)CC3)c3ccccc3n2)cc1`, the reporter increase is reported as inconclusive: 45.8%. For `Nc1ccccc1N=Nc1ccccc1N`, the reporter increase was inconclusive: 40.2%. With `COc1ccc(NC(=O)c2cc(C3CCCCN3S(=O)(=O)Cc3ccccc3)on2)cn1` (configuration not stated) the reporter increase was active: 50.6%. For `O=C(/C=C/c1ccccc1Cl)c1ccc(O)cc1`, the reporter increase was inconclusive: 40.5%. With `COc1ccc(NC(=S)NCCc2c[nH]c3ccccc23)cc1` the reporter increase was inactive: 13.6%. In the case of `COc1cc(NC(=O)CSc2nnc3n2C(C)(C)Cc2ccccc2-3)cc(OC)c1`, the reporter increase is reported as inactive: 5.05%. With `COc1ccc(NC(=O)c2cc3ccccc3cc2OC)cc1` the reporter increase was inactive: 27.6%. For `Clc1cccc(/C=N/Nc2nnc(Cl)c3ccccc23)c1`, the reporter increase was inconclusive: 40.1%. With `NS(=O)(=O)c1ccc(NC(=O)COC(=O)CCc2ccc(S(=O)(=O)N3CCOCC3)cc2)cc1` the reporter increase was inactive: -6.94%. In the case of `CCCCn1nnc(N(C(=O)c2cccs2)C(=O)c2cccs2)n1`, the reporter increase is reported as inconclusive: 43%. With `Cc1ccc2c(c1)[nH]c1c(N3CCN(Cc4ccccc4)CC3)ncnc12` the reporter increase was inactive: 8.88%. In the case of `CC(=O)c1sc(N/N=C\c2cccc(Br)c2)nc1C`, the reporter increase is reported as inconclusive: 40.4%. For `O=[N+]([O-])c1ccccc1OCCCn1cnc2ccccc21`, the reporter increase was active: 64.6%. For `COc1ccc(/C=C/C(=O)O/N=C(\N)c2ccccn2)cc1OC`, the reporter increase was inconclusive: 40.4%. For `Cc1ccc(NC(=O)c2ccc(Cl)c(NC(=O)c3cccs3)c2)cc1`, the reporter increase was inconclusive: 42%. With `CC(=Nc1cccc(O)c1)c1sc2ccccc2c1O` the reporter increase was active: 82.1%. In the case of `O=C(COc1ncnc2ccccc12)c1ccc(Cl)cc1`, the reporter increase is reported as inconclusive: 32.7%. For `C/C(NC(=O)c1ccccc1)=C1/C(=O)CC2C1C2(C)C` (configuration not stated), the reporter increase was active: 52%. For `c1ccc(OCc2nc(-c3ccncc3)no2)cc1`, the reporter increase was inconclusive: 44.1%.
